# Laboratory results published in the supplement of paper PMC11417369.
# ± gives the standard deviation of the averaged measurements. Some of the results follow.
# Tested on: PfAP2-I AP2 domain 3 (GST-tagged)
# Test: gcPBM binding intensity (ln(normalized median fluorescence intensity)); higher = stronger DNA binding
# In short: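 GST-fused DNA-binding domains of P. falciparum, expressed in E. coli, were applied at about 25 μg on average for 1 h to an Agilent 4 × 180k array of primer-extended double-stranded 36-bp intergenic genomic probes and negative controls. Binding intensity is the highest Masliner-normalised natural-log median intensity across replicate spots of either probe orientation, measured with Alexa488 anti-GST antibody and a 488 nm scan.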
row,Sequence,gcPBM binding intensity (ln)
1,AAAATAATAAAAAAAAAAAAAAAAAAAAAAAAGTAT [TGCATGCA_negctrl_site193],7.63 ± 0.65
2,AAAAAAATAATAAAATGTACAAATAAACACATAAAG [XGTACX_site5102],8.04 ± 0.53
3,AAATAAAATAAAACAACACACACGAATGTATAAATA [CACACA_site885],7.71 ± 0.64
4,TACAACAAGTAATGGTGTACATTATATTATGTAATA [XGTACX_site1194],7.73 ± 0.47
5,TATAACAATTTTTATGCATGCGACTATAATATTTTT [TGCATGCA_site508],7.63 ± 0.66
6,TACATATTGAATAAGACACACATATATATATATATA [CACACA_site1878],9.32 ± 0.38
7,TAAGGATTGGTATAAAGTACAGGAGTAAATTGAAAA [XGTACX_site8525],7.95 ± 0.55
8,CATACACATATATATTGTACACATATATGTATGTAT [XGTACX_site4030],7.64 ± 0.34
9,ATATTTTTTTTTTATTGTACCCTCATAAAAGAAAAG [XGTACX_site773],8.03 ± 0.42
10,TATATACACGCACATACACACAAATAAAAAAACACC [CACACA_site7578],9.055 ± 0.035
11,TGTGTTGTAATTAAAACACACATGAAAAAATTAAAA [CACACA_site51],7.82 ± 0.64
12,GTATTATTCTATAGAAGTACAGTATATTATTATTTA [XGTACX_site5073],8.05 ± 0.18
13,TTTTTTATTCCATAATATAATATGTTTTGAAATTTG [GTGCAC_negctrl_site440],7.53 ± 0.61
14,ATATACATATCAATGTAATATTATATACTTTTTTAG [CACACA_negctrl_site816],7.43 ± 0.51
15,AAAAAAATAAATAAATGTACATATATAAAACATTGT [XGTACX_site2136],7.84 ± 0.33
16,ATATAATTATATTCCATACACACATATATTTAAAGG [CACACA_site2958],7.8 ± 0.47
17,AAACGAGAACATAATAAATACATAAATAAATAAATA [GTGCAC_negctrl_site433],8.02 ± 0.76
18,ATTAATAATATTACATGTACATAATATAATTGAAAA [XGTACX_site5084],7.79 ± 0.19
19,TTTATTTTATTCACTATCATAAGCAAAACTTAAACA [GTGCAC_negctrl_site287],7.6 ± 0.4
20,ATTTTTTTTTTTTTTTTTTTTTTTTTTTTTGTTGTT [CACACA_negctrl_site1313],7.67 ± 0.32
21,TAGTTAATATGATTATGTACATATATATATTAATTT [XGTACX_site1750],7.55 ± 0.3
22,TTAGATATTATTATATGTACATATTATATGTATTAT [XGTACX_site3836],7.74 ± 0.41

row,Sequence,gcPBM binding intensity (ln)
1,ATAATATATTTATAAACACACAAAAAAAGTTATATA [CACACA_site6831],7.55 ± 0.55
2,TGTATATGAAAAAATAGTACTCATATAAATATCTTT [XGTACX_site6542],7.63 ± 0.64
3,TTAATCCACAGACACACACACACAAAATAAAATACA [CACACA_site244],8.06 ± 0.16
4,TTATTTATGAAGTATACACACAATATATATATATAT [CACACA_site1248],9.01 ± 0.45
5,TAGTTCTTTTAATTTAGTATTATACAATATTGGAAA [CACACA_negctrl_site521],7.49 ± 0.47
6,AATATATTAAATATTACACACATACATTTAGTGTAA [CACACA_site5145],7.72 ± 0.4
7,TATATATTAAACTTTGCACACATAATTTAACTACAA [CACACA_site3440],8.86 ± 0.26
8,AATATGTGTATAGATAGTACACATGCTGATAATATA [XGTACX_site5941],7.82 ± 0.59
9,AAAATTTTGGAACGTGCACACATATGTAATATATAT [CACACA_site9004],10.2 ± 0.48
10,TTTTTAAAATATTTAACACACAATTATAATGCATAA [CACACA_site3932],8.885 ± 0.035
11,AGTAGTCTGGAGAAATGTACACAGTATCTGGTAGCT [XGTACX_site4871],7.64 ± 0.64
12,AATAATAAATAAATGTGTACTTAAAAATATTATATT [XGTACX_site3005],7.76 ± 0.41
13,CAAAGTATTATGATTACACACATGTGCTTTTTTCTT [CACACA_site163],7.82 ± 0.57
14,TTGTATCATATATTATGTACATATTGATTTATTACC [XGTACX_site12],7.88 ± 0.26
15,ATGTCCTATATTAGTACACACATGAAAATATAAATA [CACACA_site7497],8.26 ± 0.29
16,AACCATACACAAATAAACATAGACACAGATACCTCC [CACACA_negctrl_site598],7.75 ± 0.61
17,AATATAAAAAAAAACAAAAAAAAAATTTTGGTTCAC [CACACA_negctrl_site1290],7.38 ± 0.7
18,TTATTGTTATTTGTTTGTACATAATATAATATATTA [XGTACX_site6477],7.71 ± 0.33
19,TCCTATGATGATGATAGTACATATGAGTTCAAAAAA [XGTACX_site273],7.93 ± 0.49
20,ACAATTAATCAAACAAGTACAAAATATATCCCTATT [XGTACX_site6223],7.87 ± 0.47
21,TATATTTATTTATATACACACATAATAAAAAATATA [CACACA_site6527],7.75 ± 0.32
22,TACTTATTGTGATACTTATATTATTTTATGATTAAA [XGTACX_negctrl_site353],7.57 ± 0.35
